Among all 380,000 compounds or so, about 4,000 (1.1%) were called active. This list was built around the results that the source calls inconclusive (neither active nor inactive); the mix of calls is not that of the screen. Calls follow the shape of the dose curve; as a rule, active = well fitted activation curve with a large enough effect; inconclusive = small, poorly fitted or top-dose-only effect; inactive = no such curve, though single readings can be large or run the other way. Where the call is inconclusive, the potency comes from a doubtful curve fit.
Assay: qHTS Assay to Identify Small Molecule Activators of BRCA1 Expression; also: nearly all actives have a fitted effect of over 80% in size
Details: MCF7-BRCA1-FFLuc reporter, luminescence, 48 h; activation: at 46.1 µM (top of the series), scaled: vehicle 0%, 10 µM genistein 100% unless noted
Outline: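 MCF7-BRCA1-FFLuc cells, 2000/well in phenol-red-free MEM, attached 2 h then treated 48 h at 37 C. Luciferase luminescence read 15 min after reagent; normalized to genistein maximum activation (10microM) and DMSO, concentration-response fitted.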
Potency is read from the fitted curve at half-maximal effect; tags tell the direction and shape of the fitted curve.

**Q.** For `O=C(NCCc1ccc(F)cc1)c1ccc2nccnc2c1`, which Potency is on record?
**A.** Its Potency is inconclusive: 1.26 µM [activator, full curve, poor fit].

**Q.** Which Potency does the source give for `Cc1ccc(-c2nc(NC(=O)CSc3ncn[nH]3)ns2)cc1` here?
**A.** Its Potency is inconclusive: 35.5 µM [activator, single point].

**Q.** Which Potency does the source give for `O=C(c1ccc(Cl)cc1)c1coc2ccc(O)cc12` here?
**A.** The Potency was active: 3.98 µM.

**Q.** For `COc1ccc(C(NC(=O)C2CCN(C/C=C/c3ccc(OC(C)=O)c(OC)c3)CC2)c2ccccn2)cc1` (centres undefined), which Potency is on record?
**A.** Its Potency is “inactive”.

**Q.** With `Cc1ccc(C(=O)Nc2nccc(C)n2)cc1` as the compound, how does the Potency read?
**A.** The Potency was “inactive”.

**Q.** Which Potency does the source give for `O=C(O)c1ccc(N/N=C/c2cccc3nccnc23)cc1` here?
**A.** Its Potency is active: 12.6 µM.

**Q.** With `CC(c1ccccc1C(=O)O)c1cc(F)cc2ccccc12` (centres undefined) as the compound, how does the Potency read?
**A.** The Potency was “inactive”.

**Q.** Which Potency does the source give for `COc1ccc(/[N+]([O-])=C/c2ccoc2)cc1` here?
**A.** The Potency was active: 11.2 µM.

**Q.** Which Potency does the source give for `COc1ccc(CC(=O)N/N=C(\C)c2cccnc2)cc1` here?
**A.** The Potency was “inactive”.

**Q.** With `CCc1ccc(NC(=O)c2cc(CC(C)C)on2)cc1` as the compound, how does the Potency read?
**A.** The Potency was inconclusive: 11.2 µM [activator, partial curve, poor fit].

**Q.** Which Potency does the source give for `COc1ccc(CSC2=C(C#N)C(=O)NC3(CCCCC3)S2)cc1` here?
**A.** The Potency was inconclusive: 31.6 µM [activator, single point].

**Q.** Which Potency does the source give for `COc1ccc2oc3ccccc3c(=O)c2c1` here?
**A.** The Potency was inconclusive: 22.4 µM [activator, single point].

**Q.** Which Potency does the source give for `C=CCNc1nc(-c2ccc3c(c2)OCCO3)cs1` here?
**A.** Its Potency is inconclusive: 3.55 µM [activator, partial curve, poor fit].

**Q.** For `O=C1/C(=C\Nc2ccccc2)CCN1c1ncccn1`, which Potency is on record?
**A.** Its Potency is inconclusive: 10 µM [activator, partial curve, poor fit].

**Q.** Which Potency does the source give for `O=C(Nc1cccnc1)OCc1ccccc1` here?
**A.** The Potency was inconclusive: 12.6 µM [activator, partial curve, poor fit].

**Q.** For `CC1CN(C(=O)c2cccc(COc3ccc(Br)cc3)c2)CC(C)O1` (centres undefined), which Potency is on record?
**A.** Its Potency is inconclusive: 0.316 µM [activator, full curve, poor fit].

**Q.** Which Potency does the source give for `Cc1ccc(C(=O)CC2(O)C(=O)N(Cc3ccccc3)c3ccccc32)o1` (centres undefined) here?
**A.** The Potency was “inactive”.

**Q.** For `Cc1cc(N/C=C\C(=O)c2ccc(Cl)c(Cl)c2)no1`, which Potency is on record?
**A.** The Potency was inconclusive: 2.82 µM [activator, full curve, poor fit].

**Q.** For `Nc1ccc(-c2nc3ccccc3o2)cc1`, which Potency is on record?
**A.** The Potency was inconclusive: 3.16 µM [activator, full curve, poor fit].

**Q.** For `O=c1nc(N/N=C/c2c[nH]c3ccccc23)cn[nH]1`, which Potency is on record?
**A.** The Potency was inconclusive: 2.51 µM [activator, partial curve, poor fit].

**Q.** Which Potency does the source give for `CCOC(=O)C(C(=O)OCC)C1N=C(N)N=C2Oc3ccccc3N21` (centres undefined) here?
**A.** The Potency was active: 12.6 µM.

**Q.** With `O=C(Nc1ccc2oc(=O)ccc2c1)c1cc2ccccc2o1` as the compound, how does the Potency read?
**A.** The Potency was active: 2.51 µM.

**Q.** Which Potency does the source give for `CC(C)c1ccc(C(O)Cc2nc3ccccc3n2C)cc1` (centres undefined) here?
**A.** The Potency was inconclusive: 6.31 µM [activator, partial curve, poor fit].

**Q.** With `CC1SCC(NC(=O)c2ccc(Cl)cc2)CS1` (centres undefined) as the compound, how does the Potency read?
**A.** Its Potency is active: 11.2 µM.

**Q.** Which Potency does the source give for `Cc1ccc(S(=O)(=O)Nc2ccncc2)c(C)c1N(C)S(=O)(=O)c1ccc(Cl)cc1` here?
**A.** The Potency was inconclusive: 20 µM [activator, single point].

**Q.** With `CN(C)c1ccc(N=Nc2cccc(F)c2)cc1` as the compound, how does the Potency read?
**A.** Its Potency is active: 1.58 µM.

**Q.** For `O=C(Nc1ccc(Br)cc1)N1CCc2ccccc2C1`, which Potency is on record?
**A.** The Potency was inconclusive: 15.8 µM [activator, single point].

**Q.** For `CCOc1ccc2c(c1)c(N=Nc1cccc(C(=O)O)c1)c(O)n2C`, which Potency is on record?
**A.** Its Potency is active: 10 µM.

**Q.** For `Cc1csc(SCCN2C(=O)c3ccccc3C2=O)n1`, which Potency is on record?
**A.** Its Potency is inconclusive: 12.6 µM [activator, partial curve, poor fit].

**Q.** Which Potency does the source give for `Cc1ccc2[nH]c(C(=O)N/N=C/c3ccccc3O)c(C)c2c1` here?
**A.** Its Potency is “inactive”.

**Q.** Which Potency does the source give for `Cn1c2ccccc2c2c(=O)oc3ccccc3c21` here?
**A.** The Potency was inconclusive: 12.6 µM [activator, partial curve, poor fit].

**Q.** For `O=C(Cc1ccc(Br)cc1)N1CCc2ccccc2C1`, which Potency is on record?
**A.** Its Potency is active: 10 µM.

**Q.** Which Potency does the source give for `O=C1CCCC(=NNC(=O)c2cc3ccccc3cc2O)C1` here?
**A.** Its Potency is “inactive”.

**Q.** For `O=C(O)c1cccnc1Nc1ccc(Cl)cc1`, which Potency is on record?
**A.** The Potency was inconclusive: 11.2 µM [activator, partial curve, poor fit].

**Q.** With `Clc1ccc(-n2cc(COCc3ccccc3)nn2)cc1` as the compound, how does the Potency read?
**A.** Its Potency is inconclusive: 1.26 µM [activator, full curve, poor fit].

**Q.** For `Cc1ccc(Nc2nnns2)cc1`, which Potency is on record?
**A.** Its Potency is “inactive”.

**Q.** Which Potency does the source give for `CCOC(=O)N1CCN(c2ncc(C(F)(F)F)cc2Cl)CC1` here?
**A.** Its Potency is “inactive”.

**Q.** Which Potency does the source give for `O=C(CN1CCN(S(=O)(=O)c2ccc(Br)cc2)CC1)Nc1ccc2c(c1)OCCO2` here?
**A.** Its Potency is “inactive”.

**Q.** Which Potency does the source give for `Cc1ccc(OC(=O)c2cccc(S(=O)(=O)N3CCCC3)c2)c(-n2nc3ccccc3n2)c1` here?
**A.** The Potency was inconclusive: 10 µM [activator, partial curve, poor fit].

**Q.** Which Potency does the source give for `Cc1cc(/C=C2/C(=N)N3C(=NC2=O)SN=C3S(C)(=O)=O)c(C)n1-c1ccccc1F` here?
**A.** The Potency was inconclusive: 2.51 µM [activator, partial curve, poor fit].

**Q.** For `Cc1ccc(Oc2ccc(/C=N/O)cn2)cc1`, which Potency is on record?
**A.** The Potency was inconclusive: 15.8 µM [activator, partial curve, poor fit].

**Q.** Which Potency does the source give for `CCc1ccc(NC(=O)Nc2ccncc2)cc1` here?
**A.** The Potency was active: 10 µM.

**Q.** For `Nc1cc(N)nc(SCC(=O)N2CCc3ccccc32)n1`, which Potency is on record?
**A.** The Potency was inconclusive: 7.94 µM [activator, partial curve, poor fit].

**Q.** For `Cc1ccccc1-c1nc2ccccc2[nH]1`, which Potency is on record?
**A.** Its Potency is inconclusive: 10 µM [activator, partial curve, poor fit].

**Q.** Which Potency does the source give for `Nc1ccccc1-c1nc2ccncc2[nH]1` here?
**A.** Its Potency is inconclusive: 11.2 µM [activator, partial curve, poor fit].

**Q.** For `CCOc1ccc(NC(=O)Nc2ccon2)cc1`, which Potency is on record?
**A.** Its Potency is active: 10 µM.

**Q.** For `O=C(Nc1ccc2oc(-c3ccccc3F)nc2c1)c1ccccc1F`, which Potency is on record?
**A.** Its Potency is inconclusive: 1.26 µM [activator, full curve, poor fit].

**Q.** For `COc1ccc(OCc2ccc(C(=O)O)cc2)cc1`, which Potency is on record?
**A.** The Potency was inconclusive: 1.58 µM [activator, partial curve, poor fit].

**Q.** With `Cc1nnc(NCCc2ccccc2)c2ccccc12` as the compound, how does the Potency read?
**A.** Its Potency is inconclusive: 2 µM [activator, partial curve, poor fit].

Source: PubChem BioAssay AID624202 (National Center for Advancing Translational Sciences (NCATS), 2012)
